# The other results are listed elsewhere or left out. At the low end of the ranking the order means little.
# Biological target: T1, GST-Rok-C97-191 (UniProt O34857)
# T1 sequence: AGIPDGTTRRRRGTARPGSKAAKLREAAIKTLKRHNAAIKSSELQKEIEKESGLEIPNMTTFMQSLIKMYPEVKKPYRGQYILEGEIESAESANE
# Assay: protein binding microarray;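 further: rank score from −0.5 (least bound) to 0.5 (best bound)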
# Details: Rok is a gene silencer of Bacillus subtilis; high values mean tight binding; most listed sequences are background and not binding sites; double strand, one strand shown
row,Sequence,binding signal
1,ATCGATAC,0.0929 E-score
2,GAACATGA,0.0153 E-score
3,CTAAGGTC,-0.121 E-score
4,CATTTTCG,0.0882 E-score
5,CTGGAGCA,-0.0114 E-score
6,GTTGCACA,-0.11 E-score
7,AACCACTG,-0.127 E-score
8,ATGGGGCA,-0.192 E-score
9,ACCTATTA,0.282 E-score
10,AGGGTCAT,-0.0796 E-score
11,ATTGCTGA,0.0398 E-score
12,CGTTGGCA,-0.0939 E-score
13,CAGGCCGC,-0.274 E-score
14,GAGGTTAC,0.0652 E-score
15,TCGCTTCA,-0.0833 E-score
16,CCAACCAG,-0.224 E-score
17,AGACTGAC,-0.0742 E-score
18,TAACGATA,0.13 E-score
19,GAAGTCTA,-0.147 E-score
20,AGACTGGC,-0.0765 E-score
21,CTTAGGGC,-0.0993 E-score
22,AGTGTGCG,-0.136 E-score
23,CAGAGTGC,-0.222 E-score
24,GACGGGGC,-0.21 E-score
25,AATTCCAC,0.117 E-score

row,Sequence,binding signal
1,CCTCGTGC,-0.412 E-score
2,ATCTCTAG,0.109 E-score
3,CCATTTAA,-0.0111 E-score
4,GAACTGCA,-0.00818 E-score
5,ACAAGTGC,0.0669 E-score
6,AGTATCAC,0.0886 E-score
7,AATGGAAC,-0.0198 E-score
8,AACGGTAC,0.226 E-score
9,GGGTGTAC,-0.167 E-score
10,CGCCTAGA,0.031 E-score
11,ATCAAAAG,-0.0171 E-score
12,ACTTCACG,-0.145 E-score
13,AAGCCGCC,-0.39 E-score
14,CCAGTACA,0.0219 E-score
15,CTGGTGGC,-0.155 E-score
16,CGCAGCAC,-0.17 E-score
17,AGCCAGCA,-0.117 E-score
18,GTAGCGGA,-0.164 E-score
19,TACCGATA,0.339 E-score
20,ATGTATTA,0.301 E-score
21,CCTTCGAG,-0.263 E-score
22,CCGTATAC,0.14 E-score
23,ACGGCAAA,0.123 E-score
24,AATTCGCG,0.135 E-score
25,AGCTTACT,0.00348 E-score

row,Sequence,binding signal
1,ACGAGACT,-0.0621 E-score
2,ATGGTGTC,-0.159 E-score
3,GAACTGTA,0.161 E-score
4,AAGTATTA,0.349 E-score
5,CTATGTAC,0.17 E-score
6,GCTTTGCA,-0.23 E-score
7,ATTCGAAA,0.137 E-score
8,CCTGGTAA,0.0601 E-score
9,CACGTTAG,-0.097 E-score
10,CCCCTAGA,-0.225 E-score
11,CCCTTGCA,-0.225 E-score
12,ATCGCTAC,-0.00148 E-score
13,CCTTTAAA,-0.182 E-score
14,AAATATCC,0.083 E-score
15,ACACCAGG,-0.136 E-score
16,CGCGAACC,-0.18 E-score
17,GCGATTGA,-0.1 E-score
18,CCTGATTA,-0.0482 E-score
19,CCCCCCAA,-0.226 E-score
20,ACCAGTGA,0.024 E-score
21,AGTTGATG,-0.0235 E-score
22,CCGTGATA,0.0818 E-score
23,GAGCGACA,-0.112 E-score
24,CTAAATTA,0.141 E-score
25,ACGCCTGC,-0.115 E-score

row,Sequence,binding signal
1,AGAGGCCG,-0.0778 E-score
2,GTCACCAC,-0.205 E-score
3,AATGTTAA,0.19 E-score
4,ACCAAGTA,0.0883 E-score
5,AGGTTACG,-0.0378 E-score
6,ATGAAAGA,0.0937 E-score
7,CTCGGCTA,-0.00784 E-score
8,AGAGAACC,0.11 E-score
9,CCATCAGC,-0.198 E-score
10,CTCGTTAC,-0.0868 E-score
11,ACCGTACA,0.122 E-score
12,TTCCGCAA,0.117 E-score
13,GGTTTAAA,-0.0216 E-score
14,AACGGAGA,-0.0715 E-score
15,CAGGTCTA,-0.0399 E-score
16,CACCTAAA,0.0109 E-score
17,CCGTTCCG,-0.28 E-score
18,AGAAGAGG,-0.182 E-score
19,AGGGATCG,-0.222 E-score
20,CCTGGGAG,-0.0953 E-score
21,GGCATTTA,0.141 E-score
22,CACCATAA,0.0533 E-score
23,TAGAGAAA,0.262 E-score
24,AGTGCGTA,0.115 E-score
25,AGCCGTCC,-0.224 E-score

row,Sequence,binding signal
1,CAAAGAGA,-0.141 E-score
2,CTAGCATA,0.128 E-score
3,AGTTTAGG,0.0458 E-score
4,CACACGAA,-0.0776 E-score
5,CTTATACC,0.256 E-score
6,GGCAATAA,0.138 E-score
7,CGACAAGA,-0.175 E-score
8,GTCCCCGA,-0.327 E-score
9,ACCGTCGA,-0.104 E-score
10,GCAATAGA,0.278 E-score
11,AACTCCGA,0.0806 E-score
12,TTCTCCAA,0.146 E-score
13,CCCCCCGC,-0.368 E-score
14,ACAGCACG,-0.0506 E-score
15,ACCCGCCC,-0.0655 E-score
16,GAGTGTAA,0.0764 E-score
17,CAATGGAA,0.00895 E-score
18,GCCTCTAC,-0.106 E-score
19,TAAATCGA,0.0722 E-score
20,ACCTTCCA,0.0348 E-score
21,CATCCGGA,-0.0512 E-score
22,ACAATGCA,-0.0616 E-score
23,CCTTGTGC,-0.0616 E-score
24,AAGAGGCC,-0.0911 E-score
25,CCGGAATC,-0.0013 E-score

row,Sequence,binding signal
1,AATTTCTC,0.198 E-score
2,CTAAGTCC,-0.132 E-score
3,CACCTTTA,0.0225 E-score
4,AATACCCC,-0.107 E-score
5,GATCCAGC,-0.0574 E-score
6,CCTGTCTA,0.00702 E-score
7,CCCGGGCC,-0.484 E-score
8,AATCGGTA,0.124 E-score
9,GGGCCAAC,-0.235 E-score
10,CAGACCTG,-0.165 E-score
11,GGAACCCA,-0.203 E-score
12,AATCGACG,-0.0952 E-score
13,CGTAAATC,0.0528 E-score
14,ACCGAGTA,0.0422 E-score
15,TCCATAGA,-0.00397 E-score
16,AGCCTTGG,-0.19 E-score
17,GTAGCAGA,-0.0149 E-score
18,AAGCTTCT,0.141 E-score
19,TACTGCAA,0.0621 E-score
20,CCTCAACC,-0.0922 E-score
21,CGGGGTCA,-0.336 E-score
22,CAGGGCAA,-0.148 E-score
23,CACACAGA,-0.114 E-score
24,GATTCAAC,-0.071 E-score
25,ACGGTGAA,-0.0293 E-score

row,Sequence,binding signal
1,GCCAGAAA,-0.14 E-score
2,ACTCTCTC,0.00147 E-score
3,AAGCAACG,-0.101 E-score
4,ATTGATCG,0.15 E-score
5,CGTATCGC,0.12 E-score
6,AATCGGCA,-0.17 E-score
7,CGCCACGC,-0.345 E-score
8,CACACAAA,0.0652 E-score
9,CGTTATTA,0.215 E-score
10,AACAACGG,-0.235 E-score
11,TCGTTCAA,-0.16 E-score
12,AGCTAATA,0.366 E-score
13,AAACCACC,-0.1 E-score
14,ACGACTCT,-0.158 E-score
15,GTCACGAA,-0.1 E-score
16,GCAATCGA,0.072 E-score
17,AGGTTAGA,0.0796 E-score
18,CCAGTGCA,-0.277 E-score
19,ACATAGAA,0.157 E-score
20,CGATAGAA,0.359 E-score
21,AACCAATT,0.204 E-score
22,CTTTGTAC,0.249 E-score

# Source: paper PMC6212790
